# Several values for one entry are separate records, joined by “and”; a condition that tells them apart may be missing. Equal entries are not always repeated. The campaign covered roughly 350,000 compounds. About 9,900 (2.8%) were called active. The shares of active, inactive and inconclusive entries below differ from those in the screen. The call rests on the fitted dose curve; in most records, active means well fitted activation curve with a large enough effect; inconclusive means small, poorly fitted or top-dose-only effect; inactive means no such curve, though single readings can be large or run the other way. A potency beside an inconclusive call is a rough fit, not a confirmed value.
# Assay: A quantitative high throughput screen for small molecules that induce DNA re-replication in MCF 10a normal breast cells. Further: nearly all actives have a fitted effect of over 50% in size. On activity, positive = re-replication: % of control where 0% means no effect.
# Conditions: MCF 10A DNA re-replication, Hoechst nuclear intensity, 48 h; activity, positive = re-replication: at 46.1 µM (top of the series)
# Potency means the concentration at half of the fitted maximal effect; tags describe the fitted curve by direction and shape.
SMILES,"activity, positive = re-replication",Potency
Cc1cccc(OCc2nc(C#N)c(N3CCCC3)o2)c1,inactive: 14.7%,–
COC(=O)C1NN=C(C(=O)c2ccc(Br)cc2)C1c1cccc(Br)c1 (stereo not given),–,"inconclusive: 25.9 µM [activator, single point]"
O=C(NCc1ccccc1)C1=C[C@H](c2csc3ccccc23)C[C@H](OCCCCO)O1,–,"inconclusive: 16.4 µM [activator, single point]"
C=CCNc1nc(-c2sc(NC(=O)CC)nc2C)cs1,–,"inconclusive: 10.3 µM [activator, partial curve]"
CCOC(=O)[C@@H]1[C@H]2COc3ccc(Br)cc3[C@H]2N2C(=O)N(c3cccc(F)c3)C(=O)[C@]12C,inactive: -2.35%,–
O=C1CCCCC1Nc1ccc2ccccc2c1 (stereo not given),–,"inconclusive: 16.4 µM [activator, partial curve]"
CCCCN(C(=O)CSc1ncn[nH]1)c1c(N)n(Cc2ccccc2)c(=O)[nH]c1=O,inactive: 14.3%,–
COc1ccc2c(c1)O/C(=C\c1ccccc1C)C2=O,–,"inconclusive: 16.4 µM [activator, partial curve, poor fit]"
Cn1c(-c2ccc3c(c2)OCO3)cnc1NC(=O)CCC(=O)NCCc1ccccc1,inactive: 1.34%,–
COc1ccccc1NC(=O)c1ccc(NC(=O)C2COc3ccccc3O2)cc1 (stereo not given),–,"inconclusive: 29.1 µM [activator, single point]"
Cc1nc(Nc2ccccc2)sc1-c1ccccc1,–,"inconclusive: 29.1 µM [activator, single point]"
O=C(Nc1nnc(-c2ccc(Cl)s2)o1)C1CC1,–,"inconclusive: 23.1 µM [activator, single point]"
CCOc1ccc(/C=C/c2nc(C#N)c(NCCCN(C)C)o2)cc1,–,active: 6.51 µM
Cc1ccc(NC(=S)NCCC(c2ccccc2)c2ccccc2)c(C)c1,–,"inconclusive: 35.5 µM [activator, single point]"
CC(NC(=O)c1ccccc1F)c1nnc(SCC(=O)NC2CCCCC2)n1C (stereo not given),inactive: -15.2%,–
CCSc1nc2c(c(=O)[nH]1)C(c1ccc(C)cc1)C1=C(CCCC1=O)N2 (stereo not given),–,"inconclusive: 20.6 µM [activator, partial curve, poor fit]"
C=C(C)CNC(=S)NNC(=O)CCn1c2ccccc2c2ccccc21,–,"inconclusive: 29.1 µM [activator, single point]"
COc1ccc(/C=C/C(=O)NC(=S)Nc2ccccc2)cc1OC,inactive: 17.2%,–
C=CCc1ccc(OCC(O)COc2ccc(CC=C)cc2OC)c(OC)c1,–,"inconclusive: 35.5 µM [activator, single point]"
O=C(CN1CC(=O)Oc2ccccc21)OCC(=O)c1ccc(F)cc1,–,"inconclusive: 0.0052 µM [activator, full curve, poor fit]"
NC(=O)c1nsc(C(=O)N(c2ccccc2)C(C(=O)NC2CCCC2)c2ccc3ncccc3c2)c1N (stereo not given),–,active: 20.6 µM
CCCN1Cc2cccc(C(=O)Nc3ccc(CN4CCCC4)cc3)c2C1=O,–,"inconclusive: 29.1 µM [activator, single point] and inconclusive: 18.4 µM [activator, partial curve, poor fit]"
COc1ccc2[nH]c3c(c2c1)CCN1C(=O)N([C@@H](C)C(=O)NCc2ccccc2OC)C(=O)[C@]31C,–,"inconclusive: 0.146 µM [activator, full curve, poor fit]"

SMILES,"activity, positive = re-replication",Potency
Cc1ccc(S(=O)(=O)N(CC(=O)NCc2ccccc2Cl)C(=O)N2CCN(C)CC2)cc1,inactive: -14.1%,–
COCCCN(C(=O)CCOc1ccc(C(C)(C)C)cc1)c1c(N)n(Cc2ccccc2)c(=O)[nH]c1=O,–,"inconclusive: 29.1 µM [activator, single point]"
COc1cccc(-c2c(C(=O)N/N=C(\C)c3ccco3)nnn2-c2nonc2N)c1,–,"inconclusive: 13 µM [activator, partial curve, poor fit]"
Cc1cc(C)cc(-c2nc(-c3ccncc3)no2)c1,inactive: 0.512%,–
CCOc1ccc(N2C(=O)CC(Sc3nnnn3-c3ccccc3)C2=O)cc1 (stereo not given),–,"inconclusive: 29.1 µM [activator, single point]"
COc1ccc(S(=O)(=O)N2CCCCCC2)cc1C(=O)N(CC(C)C)C1CCS(=O)(=O)C1 (stereo not given),inactive: -0.961%,–
OC(c1ccccn1)(c1ccccn1)c1ccccn1,–,"inconclusive: 25.9 µM [activator, single point]"
Cc1cc(C)c2c(-n3cccc3)c(NC(=O)OC(C)C)sc2n1,inactive: 21.3%,–
Cc1nc(NC2=NCN(CCCN3CCOCC3)CN2)nc2c(C)cccc12,–,"inconclusive: 25.9 µM [activator, single point]"
N#Cc1ccccc1NC(=O)CN(Cc1ccccc1)Cc1ccccc1,–,"inconclusive: 29.1 µM [activator, single point]"
COc1ccccc1C#Cc1ccc2c(=O)c3ccccc3n(C)c2c1,–,active: 20.6 µM
C=C1CCC[C@]2(C)C[C@H]3OC(=O)C(CNC(C)CC)[C@H]3CC12 (stereo not given in full),–,"inconclusive: 23.1 µM [activator, single point]"
CC(C)CNC(=O)CCCc1c[nH]c2ccccc12,inactive: -1.98%,–
Cc1ccc2c(CC(=O)N3CCc4ccccc43)coc2c1,–,"inconclusive: 12.6 µM [activator, single point]"
Cc1cc2oc(C(=O)N3CCN(Cc4ccccc4)CC3)c(C)c2cc1C,–,"inconclusive: 23.1 µM [activator, single point]"
O=C(CCC(=O)OCC(=O)c1ccc(-c2ccccc2)cc1)Nc1cccc2cccnc12,inactive: 3.42%,–
OCC1CCCN(Cc2cn(Cc3ccccc3)nc2-c2cc3ccccc3o2)C1 (stereo not given),inactive: 6.39%,–
OC(CNCc1ccccc1)(c1ccc(F)cc1)c1ccc(F)cc1,–,"inconclusive: 25.9 µM [activator, partial curve, poor fit]"
O=C(COC(=O)c1ccc2c(c1)OCO2)Nc1ccccc1Cl,inactive: 2.44%,–
Cc1nc([N+](=O)[O-])c(Br)n1CC(=O)c1ccc(Cl)cc1,–,active: 14.6 µM
CCCN(CC(=O)Nc1ccc(F)c(F)c1F)C(=O)c1ccc(N2CCCC2=O)cc1,inactive: 1.96%,–
CC(=O)N1CC=C2C(C#N)=C(N)C(C#N)(C#N)C(CCc3ccccc3)C2C1 (stereo not given),inactive: 4.51%,–
